Test results from the supplement of paper PMC3334620.
Whole data set: some 33,000 sequences, median “E-score (-0.5 to 0.5)” near -0.016, cut for the highest 2% near 0.32. The list shows a part of the results.

Target: T1, Stp1 (UniProt B3LFK1)
T1 sequence: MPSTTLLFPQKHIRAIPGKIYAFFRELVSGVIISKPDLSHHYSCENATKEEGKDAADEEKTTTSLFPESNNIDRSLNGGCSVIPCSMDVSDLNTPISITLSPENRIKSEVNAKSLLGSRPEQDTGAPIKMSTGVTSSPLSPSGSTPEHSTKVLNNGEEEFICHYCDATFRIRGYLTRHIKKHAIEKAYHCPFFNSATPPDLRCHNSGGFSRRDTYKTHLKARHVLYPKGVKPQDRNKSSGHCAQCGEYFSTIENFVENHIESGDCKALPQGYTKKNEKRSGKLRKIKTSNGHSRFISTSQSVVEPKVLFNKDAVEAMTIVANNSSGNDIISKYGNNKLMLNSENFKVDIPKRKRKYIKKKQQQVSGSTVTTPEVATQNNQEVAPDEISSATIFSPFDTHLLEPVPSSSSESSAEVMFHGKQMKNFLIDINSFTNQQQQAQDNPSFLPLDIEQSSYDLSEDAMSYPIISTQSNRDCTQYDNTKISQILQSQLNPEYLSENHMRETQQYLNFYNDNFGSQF
Assay: PBM E-score (8-mer binding enrichment) (E-score (-0.5 to 0.5)); higher = stronger / more preferred TF binding; most listed sequences are background and not binding sites
Conditions: protein concentration: 200 nM; construct: GST-full length
In short: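 PURExpress in vitro transcription/translation supplied GST-tagged yeast transcription factors, either full-length or DNA-binding domain. Applied at about 100-200 nM to universal all-10-mer Agilent arrays double-stranded by primer extension, the bound protein was detected with fluorescent anti-GST. E-scores, modified Wilcoxon-Mann-Whitney statistics, were given by the Universal PBM Analysis Suite to ungapped eight-base words pooled with their reverse complements after masliner normalisation.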

| Sequence | PBM E-score |
| --- | --- |
| GATGCGCC | 0.194 |
| CAACTGGA | 0.0581 |
| GACACACC | -0.137 |
| TGAGCCAA | -0.0647 |
| CTATGCAC | -0.116 |
| GCTAGAAA | 0.162 |
| CCAGACCA | -0.0853 |
| GAATGTCA | 0.0119 |
| CTCACACA | -0.0213 |
| AGAATTAC | 0.0123 |
| CAGAGAGC | -0.148 |
| AACGGGCC | -0.0518 |
| ACTACGCA | -0.222 |
| CAACCATC | -0.23 |
| GGTTCGAC | -0.084 |
| CGTTCTCA | 0.0363 |
| CCCTTAGA | -0.296 |
| AATGTGTC | 0.0247 |
| CCATCCCA | -0.0834 |
| TGACACAA | 0.0576 |
| ATGGGTCA | -0.255 |
| ACAAATTA | 0.226 |
| ATCTCCCC | -0.378 |
| AGTGCATA | -0.115 |
| ATACTGCG | -0.0432 |

| Sequence | PBM E-score |
| --- | --- |
| AGTCACAA | -0.0332 |
| CATGGTCC | -0.137 |
| CAAGTTGG | 0.0131 |
| ATCCCATA | -0.158 |
| CCCGACAC | -0.302 |
| CCAAGCGA | -0.0193 |
| AAGCGCGG | 0.171 |
| ATGAGGAA | -0.0278 |
| GTATGAGA | -0.0511 |
| CATGCGGC | 0.459 |
| ATAGCAAA | -0.038 |
| GCAAGCCC | -0.132 |
| GACCGCGA | -0.0775 |
| CCACTCAC | 0.037 |
| GCGATTAC | -0.0705 |
| CATCCTGC | -0.266 |
| CAAGATAG | -0.122 |
| GGTACAGA | -0.0522 |
| GATGCATA | -0.0716 |
| ACTGGTGA | -0.207 |
| CCCCCCCA | -0.255 |
| CCTTAATA | 0.0831 |
| CACTCTCC | -0.0133 |
| CTAGAGCC | 0.184 |
| CCACAACC | 0.00543 |

| Sequence | PBM E-score |
| --- | --- |
| AACCAGCA | -0.207 |
| AAGAGAGT | -0.0866 |
| CGGAAAAG | 0.0534 |
| ATTGTCGG | 0.0544 |
| AACCTTTC | -0.201 |
| GCGTGAGA | 0.0909 |
| ATTTTTGC | 0.211 |
| GAAGAACC | -0.181 |
| AATGAATT | 0.167 |
| ACTTGTTC | 0.0036 |
| GCGAGACC | -0.0269 |
| GCTGACCA | -0.137 |
| CGAGAACG | 0.0278 |
| ATGTCGCG | 0.124 |
| AGGGATCC | -0.27 |
| AGCACGAG | 0.0583 |
| GGTATCAA | -0.0075 |
| ACAGGACC | -0.156 |
| CCTCCCGC | -0.0365 |
| TCTCCGCA | -0.0488 |
| TATGGGAA | -0.0704 |
| AAAAACGA | 0.128 |
| ACTACAAC | 0.131 |
| CACGCAGA | -0.0561 |
| AGACCGAT | -0.178 |

| Sequence | PBM E-score |
| --- | --- |
| AGCATCCC | -0.307 |
| CACATGGG | -0.178 |
| GTTGGGGA | -0.215 |
| AGTGGGTA | -0.199 |
| AGTCTGCG | -0.224 |
| GAACGGGC | -0.0577 |
| CCTCCTCG | -0.21 |
| GAAGCGTC | -0.0144 |
| CAGGTACC | -0.233 |
| AGCCTGGC | -0.106 |
| CGGAACGC | 0.0374 |
| GCAGGGGA | -0.395 |
| GTAGCCCA | -0.0968 |
| CACCCCTA | -0.147 |
| CTGCCTGC | -0.125 |
| AGTAGACC | -0.055 |
| GATGCGGC | 0.47 |
| AGTTTAAC | -0.0287 |
| CGAGACTA | -0.219 |
| CGCTTGGC | 0.0526 |
| CCGGAGTC | -0.144 |
| CGGACCTC | -0.128 |
| GCTATAGA | 0.0356 |
| CAATATGA | -0.0206 |
| CACCGCCG | 0.147 |

| Sequence | PBM E-score |
| --- | --- |
| CAAGCTCG | -0.164 |
| ATAAACGC | 0.0595 |
| CCGTTGGC | 0.164 |
| CTGTATCC | 0.00294 |
| GCTAAGAC | -0.00858 |
| AATCTCTA | -0.0516 |
| CGTTGCAA | 0.16 |
| ATACCCTA | -0.0607 |
| GTTCGTCA | -0.108 |
| AGCCCTGC | 0.0478 |
| AGGGCCAT | -0.13 |
| CGTGGGGA | -0.2 |
| TAAACCGA | -0.0738 |
| CCGATCAC | 0.0524 |
| CTAGGGCC | -0.0363 |
| CAGATGAG | -0.00018 |
| TACGGCTA | 0.349 |
| AGCCTTCC | -0.139 |
| ATCGGTTC | -0.0639 |
| AGCCATGG | -0.0348 |
| CTCATGTC | -0.116 |
| GCAGGTGA | 0.0104 |
| AACGGCTT | 0.366 |
| GTAGTTAA | 0.106 |
| ACTTAGGA | -0.242 |

| Sequence | PBM E-score |
| --- | --- |
| GCCTTTGA | 0.00858 |
| GACTGTAA | 0.0631 |
| GGAGCCCA | -0.207 |
| AGAGCTGG | -0.143 |
| GGGGCCAA | -0.335 |
| AGCTTGGC | -0.159 |
| ACTCATTG | -0.196 |
| AGCACGCG | 0.176 |
| ACCGGGAA | 0.0212 |
| AGGGGTAC | -0.248 |
| CTATTCAA | -0.0513 |
| GTGACACA | 0.0384 |
| GGGAGTAA | 0.0566 |
| CAGACGCG | -0.115 |
| CAGGCCAC | -0.0801 |
| AGTAGATG | -0.022 |
| CCGCTAAG | 0.0446 |
| CGGGCCCG | -0.0471 |
| AGCTCCGA | -0.202 |
| GCGTCTCC | 0.168 |
| CTTCGTTC | -0.283 |
| CGAGACCC | -0.0122 |
| CGTGTTCC | -0.0411 |
| GAGACGAA | -0.0792 |
| AAGAACTT | -0.0275 |

| Sequence | PBM E-score |
| --- | --- |
| ACCCAACC | -0.0719 |
| TCGGCAGA | -0.0589 |
| GCGGTAGC | -0.0371 |
| ATACGGTA | 0.233 |
| ATACCACA | 0.0264 |
| CACCTGGC | -0.22 |
| GAGTAGGC | 0.0866 |
| AGGTGCCA | -0.0228 |
| CTTGATGC | 0.0431 |
| AGATGGAG | -0.0947 |
| GAAAAAAC | 0.101 |
| CTTTCTCA | 0.194 |
| ATAATGAT | 0.166 |
| AAATCAAG | 0.161 |
| ACATGACA | 0.0011 |
| GTATCTTA | 0.218 |
| CCAAATAA | 0.101 |
| ATGGTATG | -0.0816 |
| ACCTAACC | -0.199 |
| CCAATCTC | -0.0161 |
| AGGGGGAC | -0.386 |
| CCAGGTGA | -0.176 |
